Like-named read-outs stand apart in the source and are kept apart here.
Experiments:
XOR = details: cited from earlier work
human AO = human AO (Homo sapiens, UniProt Q06278); details: human liver cytosol, DACA 6 μM
xanthine oxidase = xanthine oxidase (Bos taurus, UniProt P80457); assay: XO-catalyzed xanthine oxidation to uric acid
[1] = target: xanthine oxidase (HS6B-XO) (Bos taurus, UniProt P80457); assay: XO-catalyzed nitrite reduction to NO

UniProt P80457, sequence (P80457 whole entry): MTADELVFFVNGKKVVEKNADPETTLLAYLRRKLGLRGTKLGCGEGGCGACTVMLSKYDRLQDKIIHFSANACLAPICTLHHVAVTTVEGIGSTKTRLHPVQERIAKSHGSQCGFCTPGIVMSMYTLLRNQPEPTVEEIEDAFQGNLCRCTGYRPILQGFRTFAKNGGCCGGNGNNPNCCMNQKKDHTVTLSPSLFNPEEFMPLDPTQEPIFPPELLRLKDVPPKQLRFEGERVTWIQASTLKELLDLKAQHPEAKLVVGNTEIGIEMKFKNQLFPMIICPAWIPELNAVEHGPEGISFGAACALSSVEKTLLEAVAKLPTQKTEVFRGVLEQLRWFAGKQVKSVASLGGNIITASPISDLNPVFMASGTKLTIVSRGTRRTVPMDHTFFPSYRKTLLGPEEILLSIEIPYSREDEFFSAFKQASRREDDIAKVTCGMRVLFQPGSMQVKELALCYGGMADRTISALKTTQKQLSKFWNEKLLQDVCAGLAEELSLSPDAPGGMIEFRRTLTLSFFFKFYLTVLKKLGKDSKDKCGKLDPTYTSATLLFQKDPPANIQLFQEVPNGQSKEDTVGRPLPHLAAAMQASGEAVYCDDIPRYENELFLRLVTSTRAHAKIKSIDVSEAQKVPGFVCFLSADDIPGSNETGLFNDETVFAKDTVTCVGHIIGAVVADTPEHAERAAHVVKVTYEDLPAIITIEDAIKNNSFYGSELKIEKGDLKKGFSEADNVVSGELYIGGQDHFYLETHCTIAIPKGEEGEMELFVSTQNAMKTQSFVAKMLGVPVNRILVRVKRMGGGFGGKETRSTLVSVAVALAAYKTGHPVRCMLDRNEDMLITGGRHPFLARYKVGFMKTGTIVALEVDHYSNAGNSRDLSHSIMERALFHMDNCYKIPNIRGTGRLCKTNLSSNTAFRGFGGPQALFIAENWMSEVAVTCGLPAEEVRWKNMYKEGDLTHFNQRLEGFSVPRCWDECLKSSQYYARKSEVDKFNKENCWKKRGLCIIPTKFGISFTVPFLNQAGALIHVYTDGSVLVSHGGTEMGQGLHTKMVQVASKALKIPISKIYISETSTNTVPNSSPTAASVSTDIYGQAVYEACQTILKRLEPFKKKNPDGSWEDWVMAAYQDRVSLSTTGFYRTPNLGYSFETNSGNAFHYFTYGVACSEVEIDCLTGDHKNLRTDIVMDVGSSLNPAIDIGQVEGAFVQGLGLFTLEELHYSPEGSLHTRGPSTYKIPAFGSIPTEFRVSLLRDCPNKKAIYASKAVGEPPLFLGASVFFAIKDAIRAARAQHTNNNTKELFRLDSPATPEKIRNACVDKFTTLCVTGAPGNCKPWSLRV
UniProt Q06278, sequence (Q06278 whole entry): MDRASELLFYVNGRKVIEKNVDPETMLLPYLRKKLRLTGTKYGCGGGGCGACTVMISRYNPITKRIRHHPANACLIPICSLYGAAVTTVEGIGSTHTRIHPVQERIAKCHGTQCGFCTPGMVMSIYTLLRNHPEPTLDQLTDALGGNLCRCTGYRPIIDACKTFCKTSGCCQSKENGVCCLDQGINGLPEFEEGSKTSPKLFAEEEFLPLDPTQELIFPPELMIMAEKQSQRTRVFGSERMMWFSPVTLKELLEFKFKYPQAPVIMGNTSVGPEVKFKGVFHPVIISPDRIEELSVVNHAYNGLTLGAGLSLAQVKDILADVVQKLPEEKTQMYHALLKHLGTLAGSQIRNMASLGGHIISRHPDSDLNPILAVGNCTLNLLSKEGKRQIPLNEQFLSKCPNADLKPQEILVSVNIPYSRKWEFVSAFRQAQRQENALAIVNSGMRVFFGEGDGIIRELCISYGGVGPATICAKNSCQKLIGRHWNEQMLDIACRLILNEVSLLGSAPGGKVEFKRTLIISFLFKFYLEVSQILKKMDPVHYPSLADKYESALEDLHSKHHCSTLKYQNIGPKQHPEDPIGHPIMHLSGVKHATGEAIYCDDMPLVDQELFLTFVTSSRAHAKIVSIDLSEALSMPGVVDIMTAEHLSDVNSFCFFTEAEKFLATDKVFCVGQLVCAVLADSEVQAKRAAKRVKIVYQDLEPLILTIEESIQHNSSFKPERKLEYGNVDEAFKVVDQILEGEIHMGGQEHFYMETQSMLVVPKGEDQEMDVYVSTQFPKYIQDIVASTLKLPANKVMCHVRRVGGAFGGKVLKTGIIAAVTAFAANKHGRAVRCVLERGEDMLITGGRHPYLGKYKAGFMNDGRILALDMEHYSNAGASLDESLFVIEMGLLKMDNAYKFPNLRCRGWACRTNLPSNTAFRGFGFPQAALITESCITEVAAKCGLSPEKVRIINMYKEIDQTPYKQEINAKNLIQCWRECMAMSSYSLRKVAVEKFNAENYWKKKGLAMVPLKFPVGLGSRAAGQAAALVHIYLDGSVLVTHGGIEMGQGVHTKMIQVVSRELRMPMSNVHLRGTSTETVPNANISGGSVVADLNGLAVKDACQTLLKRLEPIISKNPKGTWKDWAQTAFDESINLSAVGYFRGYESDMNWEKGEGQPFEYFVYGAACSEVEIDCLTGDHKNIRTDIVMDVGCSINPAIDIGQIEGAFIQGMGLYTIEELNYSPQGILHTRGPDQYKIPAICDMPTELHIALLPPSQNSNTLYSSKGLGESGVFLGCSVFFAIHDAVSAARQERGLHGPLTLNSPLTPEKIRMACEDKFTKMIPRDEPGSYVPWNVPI

Oc1ncnc2[nH]ncc12 [allopurinol]
Ki (XOR; read-out: Ki, inhibition of XO): 700 nM

Cc1nc(-c2ccc(OCC(C)C)c(C#N)c2)sc1C(=O)O [febuxostat]
concentration for complete inhibition of AO (human AO): over 1 mM
Ki (XOR; read-out: Ki, inhibition of XOR): 0.96 nM

CC1=CC(=O)c2ccccc2C1=O [menadione]
effect on XO-catalyzed uric acid production (xanthine oxidase): no effect
EC50 [1]: 60 nM

Source: article PMC4260934 (Nitric oxide : biology and chemistry / official journal of …, 2014)
